Measurements: article PMC4117426
No constants are given. Whether binding was seen depends on the method and setting. Some entries that bind do so weakly or less than the wild type. Where a sequence is shown, tags or fusion partners need not be part of it.

T1: 6×His-FtsZ360 (E. coli), P0A9A6
T1 chain: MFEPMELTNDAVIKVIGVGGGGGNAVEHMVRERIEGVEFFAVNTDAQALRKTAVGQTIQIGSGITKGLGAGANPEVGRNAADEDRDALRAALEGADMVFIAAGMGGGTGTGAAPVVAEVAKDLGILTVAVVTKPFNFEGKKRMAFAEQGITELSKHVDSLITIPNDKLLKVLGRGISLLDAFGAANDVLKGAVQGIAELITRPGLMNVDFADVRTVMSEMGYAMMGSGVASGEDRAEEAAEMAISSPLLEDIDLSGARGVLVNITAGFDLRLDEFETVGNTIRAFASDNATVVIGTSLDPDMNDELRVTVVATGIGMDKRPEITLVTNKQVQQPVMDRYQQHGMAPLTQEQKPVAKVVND

T2: 6×His-SlmA (E. coli), P0C093
T2 chain: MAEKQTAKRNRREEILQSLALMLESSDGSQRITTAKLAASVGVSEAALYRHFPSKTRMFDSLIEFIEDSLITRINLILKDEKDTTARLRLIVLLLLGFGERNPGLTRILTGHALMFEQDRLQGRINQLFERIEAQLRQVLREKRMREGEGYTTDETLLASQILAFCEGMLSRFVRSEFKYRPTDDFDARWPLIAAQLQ


Legend:
FtsZ (E. coli) = FtsZ (E. coli) (UniProt P0A9A6); assay: co-sedimentation; stable FtsZ polymers formed with GMPCPP (1 mM); proteins 5 µM, SBS17-30mer DNA 2 µM; Pol buffer (50 mM HEPES-NaOH pH 8.0, 200 mM KCl, 10 mM MgCl2); 80,000 rpm 15 min 25°C; supernatant and pellet by SDS-PAGE; both purified
[1] = molecular target: T1, 6×His-FtsZ360 (E. coli), P0A9A6; assay: as above; conditions: remark: other sources report otherwise
[2] = molecular target: T2, 6×His-SlmA (E. coli), P0C093; assay: BLI; biotinylated SBS17-30mer (50 nM) on streptavidin tips, loaded with 4 µM SlmA or SlmA mutant; FtsZ or variants (4 µM, preincubated with 1 mM GDP) or peptides (up to 320 µM) in solution; 1× Pol buffer, room temperature; both purified; conditions: remark: other sources report otherwise

| Binder | binding (FtsZ (E. coli)) | binding [2] | further results |
| --- | --- | --- | --- |
| 6×His-SlmA (protein, UniProt P0C093 1-198) MAEKQTAKRNRREEILQSLALMLESSDGSQRITTAKLAASVGVSEAALYRHFPSKTRMFDSLIEFIEDSLITRINLILKDEKDTTARLRLIVLLLLGFGERNPGLTRILTGHALMFEQDRLQGRINQLFERIEAQLRQVLREKRMREGEGYTTDETLLASQILAFCEGMLSRFVRSEFKYRPTDDFDARWPLIAAQLQ | binds | – | – |
| 6×His-SlmA, P0C093 1-198 (protein) MAEKQTAKRNRREEILQSLALMLESSDGSQRITTAKLAASVGVSEAALYRHFPSKTRMFDSLIEFIEDSLITRINLILKDEKDTTARLRLIVLLLLGFGERNPGLTRILTGHALMFEQDRLQGRINQLFERIEAQLRQVLREKRMREGEGYTTDETLLASQILAFCEGMLSRFVRSEFKYRPTDDFDARWPLIAAQLQ | – | – | binding [1]: no binding (tested: 5 µM) |
| 6×His-FtsZ360, P0A9A6 1-360 (domain or fragment) MFEPMELTNDAVIKVIGVGGGGGNAVEHMVRERIEGVEFFAVNTDAQALRKTAVGQTIQIGSGITKGLGAGANPEVGRNAADEDRDALRAALEGADMVFIAAGMGGGTGTGAAPVVAEVAKDLGILTVAVVTKPFNFEGKKRMAFAEQGITELSKHVDSLITIPNDKLLKVLGRGISLLDAFGAANDVLKGAVQGIAELITRPGLMNVDFADVRTVMSEMGYAMMGSGVASGEDRAEEAAEMAISSPLLEDIDLSGARGVLVNITAGFDLRLDEFETVGNTIRAFASDNATVVIGTSLDPDMNDELRVTVVATGIGMDKRPEITLVTNKQVQQPVMDRYQQHGMAPLTQEQKPVAKVVND | – | no binding (tested: 4 µM) | – |

More lines, main results first:

| binding (FtsZ (E. coli)) | binding [2] | Binder | further results |
| --- | --- | --- | --- |
| no binding (tested: 5 µM) | – | 6×His-SlmA-R73D (protein, UniProt P0C093 1-198) MAEKQTAKRNRREEILQSLALMLESSDGSQRITTAKLAASVGVSEAALYRHFPSKTRMFDSLIEFIEDSLITDINLILKDEKDTTARLRLIVLLLLGFGERNPGLTRILTGHALMFEQDRLQGRINQLFERIEAQLRQVLREKRMREGEGYTTDETLLASQILAFCEGMLSRFVRSEFKYRPTDDFDARWPLIAAQLQ | – |
| – | no binding (tested: 4 µM) | FtsZ360, P0A9A6 1-360 (domain or fragment) MFEPMELTNDAVIKVIGVGGGGGNAVEHMVRERIEGVEFFAVNTDAQALRKTAVGQTIQIGSGITKGLGAGANPEVGRNAADEDRDALRAALEGADMVFIAAGMGGGTGTGAAPVVAEVAKDLGILTVAVVTKPFNFEGKKRMAFAEQGITELSKHVDSLITIPNDKLLKVLGRGISLLDAFGAANDVLKGAVQGIAELITRPGLMNVDFADVRTVMSEMGYAMMGSGVASGEDRAEEAAEMAISSPLLEDIDLSGARGVLVNITAGFDLRLDEFETVGNTIRAFASDNATVVIGTSLDPDMNDELRVTVVATGIGMDKRPEITLVTNKQVQQPVMDRYQQHGMAPLTQEQKPVAKVVND | – |
